# Experimental data: the supplement of paper PMC10037445
# In all, about 2,900 compounds were measured (“IRF Lucia reporter activity, fold change vs agonist alone”: median about 0.9, highest 2% from about 2.8 on). The list shows a part of the results.
# Tests used:
# RAW-Dual [1] = test: IRF Lucia reporter activity, fold change vs agonist alone; cytotoxicity flag (confluency mask): not cytotoxic; higher = enhanced IRF activity
# In short: (§1)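 RAW-Dual macrophages (50,000 cells/well in DMEM, 384-well plates) received 50 nL of library stock by pin tool, then a PRR agonist 1 h later, and were kept at 37 °C, 5% CO2. After 20 hours, supernatant was read for IRF by QuantiLuc luminescence and for NF-κB by QuantiBlue absorbance at 620 nm. Reporter activity is fold change over agonist-alone wells. Cytotoxic wells had IncuCyte confluency below 70% of agonist controls in both mask sets.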
# RAW-Dual [2] = test: IRF Lucia reporter activity, fold change vs agonist alone; higher = enhanced IRF activity; conditions: library stock concentration (final ~1000-fold dilution): 10 mM, agonist: MPLA (TLR4) […]
# In short: as §1
# RAW-Dual [3] = test: IRF Lucia reporter activity, fold change vs agonist alone; cytotoxicity flag (confluency mask): cytotoxic (confluency <70% of control); higher = enhanced IRF activity
# In short: as §1
# [4] = agonist: 3'3'-cGAMP (STING) 10 ug/mL
# [5] = cytotoxicity flag (confluency mask): not cytotoxic
smiles,measurement,setting,value
CC(C)NNC(=O)c1ccncc1 (library stock concentration (final ~1000-fold dilution): 10 mM),IRF Lucia reporter activity,RAW-Dual [1]; [4],0.837
same,IRF Lucia reporter activity,RAW-Dual [1]; agonist: LPS (TLR4) 0.1 ug/mL,0.954
CC(C)NNC(=O)c1ccncc1,IRF Lucia reporter activity,RAW-Dual [2]; [5],0.961
COc1cccc(-c2cc(F)ccc2C2Cc3nc(N)nc(C)c3C(=O)N2)n1 (configuration not stated),IRF Lucia reporter activity,RAW-Dual [2]; [5],0.941
COc1cccc(-c2cc(F)ccc2C2Cc3nc(N)nc(C)c3C(=O)N2)n1 (configuration not stated) (library stock concentration (final ~1000-fold dilution): 10 mM),IRF Lucia reporter activity,RAW-Dual [1]; [4],0.696
same,IRF Lucia reporter activity,RAW-Dual [1]; agonist: LPS (TLR4) 0.1 ug/mL,1.18
O=c1cc(N2CCOCC2)oc2c(-c3ccccc3)cccc12 (library stock concentration (final ~1000-fold dilution): 10 mM),IRF Lucia reporter activity,RAW-Dual [3]; [4],0.353
same,IRF Lucia reporter activity,RAW-Dual [3]; agonist: LPS (TLR4) 0.1 ug/mL,0.393
O=c1cc(N2CCOCC2)oc2c(-c3ccccc3)cccc12,IRF Lucia reporter activity,RAW-Dual [2]; cytotoxicity flag (confluency mask): cytotoxic (confluency <70% of control),0.627
CC(C)(C)NCC(O)COc1cccc2c1CCC(=O)N2.Cl (configuration not stated),IRF Lucia reporter activity,RAW-Dual [2]; [5],1.15
CC(C)(C)NCC(O)COc1cccc2c1CCC(=O)N2.Cl (configuration not stated) (library stock concentration (final ~1000-fold dilution): 10 mM),IRF Lucia reporter activity,RAW-Dual [1]; [4],0.982
same,IRF Lucia reporter activity,RAW-Dual [1]; agonist: LPS (TLR4) 0.1 ug/mL,1.22
C=CCOc1ccccc1OCC(O)CNC(C)C.Cl (configuration not stated) (library stock concentration (final ~1000-fold dilution): 10 mM),IRF Lucia reporter activity,RAW-Dual [1]; [4],1.03
same,IRF Lucia reporter activity,RAW-Dual [1]; agonist: LPS (TLR4) 0.1 ug/mL,0.805
C=CCOc1ccccc1OCC(O)CNC(C)C.Cl (configuration not stated),IRF Lucia reporter activity,RAW-Dual [2]; [5],0.866
CCOC(N)=O (library stock concentration (final ~1000-fold dilution): 10 mM),IRF Lucia reporter activity,RAW-Dual [1]; [4],1.1
same,IRF Lucia reporter activity,RAW-Dual [1]; agonist: LPS (TLR4) 0.1 ug/mL,1.34
CCOC(N)=O,IRF Lucia reporter activity,RAW-Dual [2]; [5],1.09
CCc1c(N(CC)C2CCOCC2)cc2oc(C3CCN(C(C)C)CC3)cc2c1C(=O)NCc1c(C)cc(C)[nH]c1=O (library stock concentration (final ~1000-fold dilution): 10 mM),IRF Lucia reporter activity,RAW-Dual [1]; [4],1.03
same,IRF Lucia reporter activity,RAW-Dual [1]; agonist: LPS (TLR4) 0.1 ug/mL,1.14
COc1cc2ncnc(Nc3ccc(F)c(Cl)c3)c2cc1O,IRF Lucia reporter activity,RAW-Dual [2]; [5],0.506
COc1cc2ncnc(Nc3ccc(F)c(Cl)c3)c2cc1O (library stock concentration (final ~1000-fold dilution): 10 mM),IRF Lucia reporter activity,RAW-Dual [1]; [4],0.452
same,IRF Lucia reporter activity,RAW-Dual [1]; agonist: LPS (TLR4) 0.1 ug/mL,0.508
CC(C)NC(=O)C1CCC(n2c(=NC(=O)c3ccc(F)cc3)[nH]c3ccc(CN4CCC(C(C)(C)O)CC4)cc32)CC1 (configuration not stated) (library stock concentration (final ~1000-fold dilution): 10 mM),IRF Lucia reporter activity,RAW-Dual [1]; [4],0.193
same,IRF Lucia reporter activity,RAW-Dual [1]; agonist: LPS (TLR4) 0.1 ug/mL,0.812
O=C(O)CCN1C(=O)/C(=C2/C(=O)Nc3ccc(Cl)cc32)SC1=S (library stock concentration (final ~1000-fold dilution): 10 mM),IRF Lucia reporter activity,RAW-Dual [1]; [4],1.05
same,IRF Lucia reporter activity,RAW-Dual [1]; agonist: LPS (TLR4) 0.1 ug/mL,0.398
O=C(O)c1cc(C(=O)O)c(C(=O)N(Cc2cccc(Oc3ccccc3)c2)C2CCCc3ccccc32)cc1C(=O)O (configuration not stated) (library stock concentration (final ~1000-fold dilution): 10 mM),IRF Lucia reporter activity,RAW-Dual [1]; [4],0.791
same,IRF Lucia reporter activity,RAW-Dual [1]; agonist: LPS (TLR4) 0.1 ug/mL,1.03
COc1cc(Nc2ncc3c(n2)-c2ccc(Cl)cc2C(c2c(F)cccc2OC)=NC3)ccc1C(=O)O (library stock concentration (final ~1000-fold dilution): 10 mM),IRF Lucia reporter activity,RAW-Dual [1]; [4],1.04
same,IRF Lucia reporter activity,RAW-Dual [1]; agonist: LPS (TLR4) 0.1 ug/mL,1.22
COc1cc(Nc2ncc3c(n2)-c2ccc(Cl)cc2C(c2c(F)cccc2OC)=NC3)ccc1C(=O)O,IRF Lucia reporter activity,RAW-Dual [2]; [5],1.26
Cc1cccc(Nc2nc(NC3CCCCC3N)ncc2C(N)=O)c1.Cl.Cl (configuration not stated) (library stock concentration (final ~1000-fold dilution): 10 mM),IRF Lucia reporter activity,RAW-Dual [3]; [4],0.0182
same,IRF Lucia reporter activity,RAW-Dual [3]; agonist: LPS (TLR4) 0.1 ug/mL,0.0241
CCc1ccc(/C=C2/SC(=S)NC2=O)cc1,IRF Lucia reporter activity,RAW-Dual [2]; [5],0.933
CCc1ccc(/C=C2/SC(=S)NC2=O)cc1 (library stock concentration (final ~1000-fold dilution): 10 mM),IRF Lucia reporter activity,RAW-Dual [1]; [4],0.59
same,IRF Lucia reporter activity,RAW-Dual [1]; agonist: LPS (TLR4) 0.1 ug/mL,0.406
Cc1ccc(Nc2nccc(N(C)c3ccc4c(C)n(C)nc4c3)n2)cc1S(N)(=O)=O,IRF Lucia reporter activity,RAW-Dual [2]; [5],1.08
Cc1ccc(Nc2nccc(N(C)c3ccc4c(C)n(C)nc4c3)n2)cc1S(N)(=O)=O (library stock concentration (final ~1000-fold dilution): 10 mM),IRF Lucia reporter activity,RAW-Dual [1]; [4],0.475
same,IRF Lucia reporter activity,RAW-Dual [1]; agonist: LPS (TLR4) 0.1 ug/mL,0.627
CN1CCc2c(c3ccccc3n2Cc2ccc(C(=O)NO)cc2)C1.Cl (library stock concentration (final ~1000-fold dilution): 10 mM),IRF Lucia reporter activity,RAW-Dual [1]; [4],1.18
same,IRF Lucia reporter activity,RAW-Dual [1]; agonist: LPS (TLR4) 0.1 ug/mL,4.79
CN1CCc2c(c3ccccc3n2Cc2ccc(C(=O)NO)cc2)C1.Cl,IRF Lucia reporter activity,RAW-Dual [2]; [5],5.65
Cc1cc(Nc2ncnc3ccc(NC4=NC(C)(C)CO4)cc23)ccc1Oc1ccn2ncnc2c1 (library stock concentration (final ~1000-fold dilution): 10 mM),IRF Lucia reporter activity,RAW-Dual [1]; [4],0.272
same,IRF Lucia reporter activity,RAW-Dual [1]; agonist: LPS (TLR4) 0.1 ug/mL,0.57
O=C(c1c(F)ccc(NS(=O)(=O)N2CCC(F)C2)c1F)c1c[nH]c2ncc(-c3cnc(C4CC4)nc3)cc12 (configuration not stated) (library stock concentration (final ~1000-fold dilution): 10 mM),IRF Lucia reporter activity,RAW-Dual [1]; [4],0.123
same,IRF Lucia reporter activity,RAW-Dual [1]; agonist: LPS (TLR4) 0.1 ug/mL,0.671
